The RNAGym collection of RNA variant scans (doi:10.1073/pnas.2313332121)
Variants at the background level are over-represented here.

B1: TPR 5TU (parent)
chain: GGAUCUUCUCGAUCUAACAAAAAAGACAAAUCUGCCACAAAGCUUGAGAGCAUCUUCGGAUGCAGAGGCGGCAGCCUUCGGUGGCGCGAUAGCGCCAACGUUCUCAACUAUGACACGCAAAACGCGUGCUCCGUUGAAUGGAGUUUAUCAUG

Variants of: B1
Assay: polymerase ribozyme fitness, log enrichment relative to wild type (log ratio); higher = more active; in vitro selection for triplet polymerase activity
How it was run: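 To select mutant libraries of each subunit of a heterodimeric triplet polymerase ribozyme, built by PCR and transcribed, each was annealed with a biotinylated primer, partner subunit and triplets, then incubated frozen at −7 °C. Extended constructs were gel-excised, captured on streptavidin beads and amplified by RT-PCR, in one round carried out in triplicate. Illumina sequencing of input and output libraries kept genotypes with ≥10 input reads and ≥1 read per output. Fitness is the base-2 logarithm of genotype enrichment relative to wild-type enrichment, from inverse-variance-weighted replicate averages.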

Variant | polymerase ribozyme fitness (log ratio)
GGAUCUUCUCGAUCUAACAAAAAAGACAAAUCUGCCACAAAGCUUGAGAGCAUCUUCGGAUGCAGAGGCGGCAGCCUUCGGUGGCGCGGUAGCGACAACGUUCUCAACUAUGACACGCAAAACGCGUGCUCCGUUUAAUGGAGUUUAUCAUG | -3.75
GGAUCUUCUCGAUCUAACAAAAAAGACAAAUCUGCCACAAAGCUUGAGAGCAUCUUCGGAUGCAGAGGCGGCAGCCUUCGGUGGCGCGGUAGCGCCGACGUUCUCAACUAUGUCACGAACAACGCGUGCUCCGUUGAAUGCAGUUUAUCAUG | ≤ -4.2
GGAUCUUCUCGAUCUAACAAAAAAGACAAAUCUGCCACAAAGCUUGAGAGCAUCUUCGGAUGCAGAGGCGGCAGCCUUCGGUGGCGCGGUAGCGCCAACGUUCUCAACUAUGACACGCAAAACGCGUGCUCCGUUGAAUGGAGUUUAUCAUG | -0.999
GGAUCUUCUCGAUCUAACAAAAAAGACAAAUCUGCCACAAAGCUUGAGAGCAUCUUCGGAUGCAGAGGCGGCAGCCUUCGGUGGCGCGUUAGCGCCAACGUUCUCAACUAUGACACGCAAAACGCGUGCUCCGUUGAAUGGAGUUUAUCAUG | -0.292
GGAUCUUCUCGAUCUAACAAAAAAGACAAAUCUGCCACAAAGCUUGAGAGCAUCUUCGGAUGCAGAGGCGGCAGCCUUCGGUGGCGCGUUCGCGCGAACGUUCUCAACUAUGACACGCAAAACGCGUGCUCCGUUGAAUGGAGUUUAUCAUG | ≤ -4.2
GGAUCUUCUCGAUCUAACAAAAAAGACAAAUCUGCCACAAAGCUUGAGAGCAUCUUCGGAUGCAGAGGCGGCAGCCUUCGGUGGCGCGUCAGCUCCAACGUUCUCAACUAUGAUACUCAAAACGCGUGCUCCUUUGAAUGGAGUUUAUCAUG | ≤ -4.2
GGAUCUUCUCGAUCUAACAAAAAAGACAAAUCUGCCACAAAGCUUGAGAGCAUCUUCGGAUGCAGAGGCGGCAGCCUUCGGUGGCGCGGUAGCGCCAACGUUCUCAACUAUGACACUCAAAACGCGUGCUCCGUUGAAUGGAGUUUAUCAUG | -0.974
GGAUCUUCUCGAUCUAACAAAAAAGACAAAUCUGCCACAAAGCUUGAGAGCAUCUUCGGAUGCAGAGGCGGCAGCCUUCGGUGGCGCGUUAGCGCCAACCUGCUCAACUAUGACACGCAAAACGCGUGCUCCGUUGAAUGGAGUUUAUCAUG | ≤ -4.2
GGAUCUUCUCGAUCUAACAAAAAAGACAAAUCUGCCACAAAGCUUGAGAGCAUCUUCGGAUGCAGAGGCGGCAGCCUUCGGUGGCGCGUUAGCGGCAACGUUCUCAACUAUGACACGCAAAACGCGUGCUCCGUUGAAUGGAGUUUAUCAUG | -1.9
GGAUCUUCUCGAUCUAACAAAAAAGACAAAUCUGCCACAAAGCUUGAGAGCAUCUUCGGAUGCAGAGGCGGCAGCCUUCGGUGGCGCGAAGGCGCCAACGUUCUCAACUAUGACACGCAAAACGCGUGCUCCGUUGAAUGGAGUUUAUCAUG | ≤ -4.2
GGAUCUUCUCGAUCUAACAAAAAAGACAAAUCUGCCACAAAGCUUGAGAGCAUCUUCGGAUGCAGAGGCGGCAGCCUUCGGUGGCGCGAAAGCGCCAACGUUCUCAACUAUGACACGCAAAACACGUGCUCCGUUGAAUGGAGUUUAUCAUG | ≤ -4.2
GGAUCUUCUCGAUCUAACAAAAAAGACAAAUCUGCCACAAAGCUUGAGAGCAUCUUCGGAUGCAGAGGCGGCAGCCUUCGGUGGCGCGUUAGCGCUAACGUUCUCAACUAUGACACGCAAAACGCGUGCUCCGUUGAGUGGAGUUGAUCAUG | ≤ -4.2
GGAUCUUCUCGAUCUAACAAAAAAGACAAAUCUGCCACAAAGCUUGAGAGCAUCUUCGGAUGCAGAGGCGGCAGCCUUCGGUGGCGCGACGGCGCCAACGUUCUCAACUAUGACACGCAUAACGCGUGAUCCGUUGAAUGCAGUUUAUCAUG | ≤ -4.2
GGAUCUUCUCGAUCUAACAAAAAAGACAAAUCUGCCACAAAGCUUGAGAGCAUCUUCGGAUGCAGAGGCGGCAGCCUUCGGUGGCGCGGUAGCGCCAACGUUCUCAACUAUGACACGCAAAACUCGUGCUCCGUUGAAUGGAGUUUAUCAUG | -1.93
GGAUCUUCUCGAUCUAACAAAAAAGACAAAUCUGCCACAAAGCUUGAGAGCAUCUUCGGAUGCAGAGGCGGCAGCCUUCGGUGGCGCGACAGCGCCAACGUUCUCAACUAUGACACGGAAAUCGCGUGCUCCGUUGAAUGGAGUUUAUCAUG | ≤ -4.2
GGAUCUUCUCGAUCUAACAAAAAAGACAAAUCUGCCACAAAGCUUGAGAGCAUCUUCGGAUGCAGAGGCGGCAGCCUUCGGUGGCGCGACGGCGCCAACGUUCUCAACUAUGACACGCAAAACGCGUGCUCCGUUGAAUGGAGUUUAUCAUG | ≤ -4.2
GGAUCUUCUCGAUCUAACAAAAAAGACAAAUCUGCCACAAAGCUUGAGAGCAUCUUCGGAUGCAGAGGCGGCAGCCUUCGGUGGCGCGUUAGCGCCAACGUUCUCAACGAUGACACGCAAAACGCGUGCUCCGUUGAAUGGAGUUUAUCAUG | -0.917
GGAUCUUCUCGAUCUAACAAAAAAGACAAAUCUGCCACAAAGCUUGAGAGCAUCUUCGGAUGCAGAGGCGGCAGCCUUCGGUGGCGCGGUAGCGCCAACGUUCUCAACUAUGACACGCAAAACGCUUGCUCCGUUGAAUGGAGUUUAGCAUG | -4.06
GGAUCUUCUCGAUCUAACAAAAAAGACAAAUCUGCCACAAAGCUUGAGAGCAUCUUCGGAUGCAGAGGCGGCAGCCUUCGGUGGCGCGAAAGCGCCAAAGUUCUCAACCAUGACACGCAAAGCGGGUGCUCCGUUGAAUGGAGUUUAUCAUG | ≤ -4.2
